Data published in PubChem BioAssay AID485281 (National Center for Advancing Translational Sciences (NCATS), 2010).
The whole screen tested about 350,000 compounds, of which about 260 (0.074%) were called active. The inconclusive results got no clear call from the source; some entries with a clear call stand among them for comparison. The call rests on the fitted dose curve; in most records, active means well fitted inhibition curve with a large enough effect; inconclusive means small, poorly fitted or top-dose-only effect; inactive means no such curve, though single readings can be large or run the other way. Where the call is inconclusive, the potency comes from a doubtful curve fit.

Target: Ferritin light chain (Equus caballus) (UniProt P02791)
Chain of UniProt P02791 (P02791 whole entry, looked up): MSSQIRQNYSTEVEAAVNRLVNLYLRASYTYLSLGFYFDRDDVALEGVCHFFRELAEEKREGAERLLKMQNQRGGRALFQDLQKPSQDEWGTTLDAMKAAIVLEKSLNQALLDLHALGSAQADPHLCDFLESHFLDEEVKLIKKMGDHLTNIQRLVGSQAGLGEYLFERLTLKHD
Experiment: qHTS Assay for Identification of Novel General Anesthetics; further: nearly all actives have a fitted effect of over 20% in size
Details: apoferritin/1-aminoanthracene competitive binding, fluorescence; activity change, negative = displacement: at 77.5 µM (top of the series)
How it was run: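 Concentration-response curves derived by four-parameter Hill fitting of normalized fluorescence, where compounds displaced 1-AMA from 10 uM horse apoferritin following a brief 10 min room-temperature incubation; propofol titration acted as positive control.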
On the % scale 0 is the no-effect control and ±100 the full control effect; potency means the concentration at half of the fitted maximal effect; tags describe the fitted curve by direction and shape.

Row | Compound | activity change, negative = displacement | Potency
1 | CCc1ccc(NC(=O)Cn2nnc(-c3ccccc3N)n2)cc1 | inactive: 4.81% | 
2 | CNC(=S)N1CCN(c2ccc([N+](=O)[O-])cc2)CC1 |  | inconclusive: 28.2 µM [inhibitor, partial curve]
3 | Cc1cc2c(C)cc(=O)[nH]c2cc1NC(=O)CCl | inactive: -10.2% | 
4 | CCc1c(C)nc2ncnn2c1NCCc1ccc(OC)c(OC)c1 | inactive: 8.87% | 
5 | CCCCCCCc1ccc(-c2ccc(O)cc2)nc1 |  | inconclusive: 31.6 µM [inhibitor, partial curve]
6 | COCc1cc(C)nc(NCCO)c1C#N | inactive: -13% | 
7 | Clc1ccc(-c2nnc(COc3ncnc4sccc34)o2)cc1 | inactive: 2.18% | 
8 | Cc1nn(CCc2nc(-c3ccco3)cs2)c2[nH]c(=O)cc(C(F)(F)F)c12 |  | inconclusive: 28.2 µM [inhibitor, partial curve]
9 | O=[N+]([O-])c1ccc(/C=C/c2ccncc2)cc1 | inactive: 6.58% | 
10 | COc1cc2c(cc1OC)-c1cc(NC3CCCCCCC3)nc(=O)n1CC2 |  | inconclusive: 31.6 µM [inhibitor, single point]
11 | Cn1c(SCc2nc3ccccc3[nH]2)nnc1-c1cccs1 |  | inconclusive: 44.7 µM [inhibitor, single point]
12 | Cc1cccc(N2CCN(c3ccc4cc(S(=O)(=O)N5CCC(C)CC5)ccc4n3)CC2)c1C | inactive: -1.95% | 
13 | Cc1noc(C)c1COc1ccc(C(=O)OCC(=O)NC(=O)C2COc3ccccc3O2)cc1 (stereo unspecified) |  | inconclusive: 25.1 µM [inhibitor, partial curve]
14 | Cc1occc1C(=O)NC(C)C12CC3CC(CC(C3)C1)C2 (stereo unspecified) |  | inconclusive: 20 µM [inhibitor, partial curve]
15 | COc1cccc(CNC(=O)CCC(=O)n2ncc3cc(C)ccc32)c1OC |  | inconclusive: 25.1 µM [inhibitor, partial curve]
16 | Cc1ccccc1S(=O)(=O)Cc1ccc(C(=O)N2CCN(c3cccc(C)c3C)CC2)o1 | inactive: 5.57% | 
17 | Cc1cc2c(cc1S(=O)(=O)NCc1ccc(F)cc1)OCCN2C | inactive: -5.23% | 
18 | CCCCN(Cc1cc2cc(C)ccc2[nH]c1=O)C(=O)c1cccc(Cl)c1 |  | inconclusive: 10 µM [inhibitor, full curve, poor fit]
19 | O=C(CCC(=O)c1ccc(Br)cc1)Nc1cccc(C(F)(F)F)c1 |  | inconclusive: 31.6 µM [inhibitor, partial curve]
20 | N/C(Cc1ccc([N+](=O)[O-])cc1)=N\OC(=O)COc1ccc2ccccc2c1 |  | inconclusive: 20 µM [inhibitor, partial curve]
21 | CCc1ccc(NC(=O)COC(=O)CCc2nc3cc(S(=O)(=O)N(CC)CC)ccc3n2C)cc1 |  | inconclusive: 22.4 µM [inhibitor, partial curve]
